Test results from PubChem BioAssay AID360 (National Center for Advancing Translational Sciences (NCATS), 2006).
About 550 (1.1%) of roughly 48,000 compounds were called active. Not shown: some 4% with an inconclusive outcome. Rule as the data show it: active = potency below about 15 µM; inconclusive = mostly about 16 µM to 33 µM; inactive = weaker than that. Some of the results follow.

Each molecule was assayed against Lysosomal acid glucosylceramidase (Homo sapiens) (UniProt P04062) (assay: Glucocerebrosidase). Details: purified enzyme, resorufin glucoside fluorescence (screen aimed at inhibitors), 20 min; series mostly up to 77 µM.
Chain of UniProt P04062 (P04062 whole entry, looked up): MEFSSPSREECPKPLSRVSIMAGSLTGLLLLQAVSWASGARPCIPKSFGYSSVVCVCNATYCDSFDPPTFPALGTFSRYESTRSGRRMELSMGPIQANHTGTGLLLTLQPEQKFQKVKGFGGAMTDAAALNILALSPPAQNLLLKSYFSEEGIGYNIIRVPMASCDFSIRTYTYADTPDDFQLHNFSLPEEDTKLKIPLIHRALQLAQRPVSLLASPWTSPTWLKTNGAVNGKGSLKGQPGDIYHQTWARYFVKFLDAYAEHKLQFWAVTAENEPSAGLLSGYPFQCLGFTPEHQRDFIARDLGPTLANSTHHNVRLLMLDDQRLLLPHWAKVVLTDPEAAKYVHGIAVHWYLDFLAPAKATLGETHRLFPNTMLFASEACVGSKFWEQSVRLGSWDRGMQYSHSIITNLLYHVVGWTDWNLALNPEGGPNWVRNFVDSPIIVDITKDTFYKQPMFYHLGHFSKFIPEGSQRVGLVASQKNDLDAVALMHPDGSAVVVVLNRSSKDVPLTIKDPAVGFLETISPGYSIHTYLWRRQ
Procedure, shortened: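 Compounds titrated against 0.2 nM normal enzyme, 30 uM resorufin beta-D-glucopyranoside substrate, citrate/phosphate buffer with taurocholate and tween-20, pH 5.9. Reaction ran 20 min at room temperature; fluorescence (Ex 548/Em 600) gave AC50.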
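Also: the screen sought inhibitors.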
Potency is read from the fitted curve at half-maximal effect.

Potency, inactive:
CCC1(c2ccccc2)NC(=O)N(CC(=O)Nc2cccc(C#N)c2)C1=O (stereo unspecified) > 76.9 µM
O=c1cc(N2CCC(Cc3ccccc3)CC2)[nH]c(=O)n1C1CCCCC1 > 76.9 µM
COC(=O)C(C(=O)NCC1CCCO1)C1CCCCCC1 (stereo unspecified) > 76.9 µM
CCOC(=O)N1CCN(C(=O)c2ccc(S(=O)(=O)c3ccc(C)cc3)c(NC(C)=O)c2)CC1 > 76.9 µM
CC(=O)c1nnn(-c2nc(N)nc(N(c3ccccc3)c3ccccc3)n2)c1C > 76.9 µM
Cc1nc2c(F)c(F)c(C(F)(F)F)c(F)c2[nH]1 > 76.9 µM
O=C(NC1CCCCC1)C1CCN(c2nnnn2-c2ccccc2)CC1 > 76.9 µM
CC1CCCCN1C(=O)Cn1c(=O)n(C2CCCCC2)c(=O)c2ccccc21 (stereo unspecified) > 76.9 µM
Cc1nnc(C)n1/N=C/c1ccc2c(c1)OCCO2 > 76.9 µM
O=C(CCC(=O)N1CCc2ccccc21)N1CCc2ccccc21 > 76.9 µM
CCOCCCNC(=O)C(NC(=O)CNC(C)=O)c1ccc(Cl)cc1 (stereo unspecified) > 76.9 µM
CCc1ccccc1N(CC(=O)N1CCN(c2ccccc2F)CC1)S(C)(=O)=O > 76.9 µM
CC1(C)CC(=O)c2c(-c3cccs3)n[nH]c2C1 > 76.9 µM
Cc1ccc(S(=O)(=O)Cn2nnnc2C(c2ccc(F)cc2)N2CCCCC2)cc1 (stereo unspecified) > 76.9 µM
Cc1ccc(Cn2ncc3c(N4CCCC4)ncnc32)cc1 > 76.9 µM
CCCN(CCC)C1CC(=O)N(Cc2ccccc2)C1=O (stereo unspecified) > 76.9 µM
O=C(O)c1ccccc1NC(=O)C1CCCO1 (stereo unspecified) > 76.9 µM
COc1cc(C(=O)Nc2nccs2)c(Br)c(OC)c1OC > 76.9 µM
COc1ccccc1Nc1nnc(SCC(=O)N2CCCC2)s1 > 76.9 µM
COc1ccccc1C(=O)NCCCn1cc(Br)c(C)n1 > 76.9 µM
Fc1cccc(Cl)c1Cn1nnc(-c2ccc3c(c2)OCO3)n1 > 76.9 µM
O=C(NCc1cn2ccsc2n1)c1cccc(C(F)(F)F)c1 > 76.9 µM
Cc1cc(NS(=O)(=O)c2ccc(Br)s2)no1 > 76.9 µM
N#Cc1c(NC(=O)CSCC(=O)O)sc2c1CCCC2 > 76.9 µM
O=C(Cc1ccc(-n2c(=O)[nH]c3ccccc3c2=O)cc1)N1CCN(c2ccccc2)CC1 > 76.9 µM
O=C(O)c1cccc(S(=O)(=O)Nc2ccc3c(c2)OCO3)c1 > 76.9 µM
O=C(Nc1nc(-c2ccc(Cl)s2)cs1)c1cccs1
COc1ccc(OC)c(-c2cc(C(=O)Nc3c(C)nn(Cc4ccc(Cl)cc4)c3C)no2)c1 > 76.9 µM
O=C(Nc1ccc(F)cc1F)c1noc2c1CCC2 > 76.9 µM
O=C(NC(C(=O)c1ccccc1)n1ccc(=O)[nH]c1=O)c1ccccc1 (stereo unspecified) > 76.9 µM
CCOC(=O)N1CCN(S(=O)(=O)c2ccc(C(=O)Nc3nc4ccccc4s3)cc2)CC1 > 76.9 µM
Cc1cc(C)c2nc(N3CCCC(C(=O)N4CCC(C(N)=O)CC4)C3)sc2c1 (stereo unspecified) > 76.9 µM
CC1CC(C)CN(c2ncc3c(n2)CC(c2ccc(Cl)cc2)CC3=O)C1 (stereo unspecified) > 76.9 µM
CCN=C1SCC(=O)N1c1ccc(OC)cc1 > 76.9 µM
COC(=O)c1ccc2c(=O)sc(N3CCC(C(N)=O)CC3)nc2c1 > 76.9 µM
CCC(=O)Nc1cccc(NC(=O)c2cccnc2)c1 > 76.9 µM
O=C1C2C3C=CC(C3=C3CCCCC3)C2C(=O)N1c1ccccc1 (stereo unspecified) > 76.9 µM
C=CCn1cc(C(=O)NCCCOCC)c(=O)c2cc(S(=O)(=O)N(CC)CC)ccc21 > 76.9 µM
O=C(CCn1c(=S)oc2ccccc21)Nc1ccc2c(c1)OCCO2 > 76.9 µM
CCOc1ccc(-c2cc3nc(C4CCN(C(=O)OC(C)(C)C)CC4)c(C(=O)O)cn3n2)cc1 > 76.9 µM
CCOC(=O)C1CCN(C(=O)N2CCOCC2)CC1 > 76.9 µM
COc1ccc(-c2nc(C#N)c(NCc3ccc(F)cc3)o2)cc1OC > 76.9 µM
Cc1noc(C)c1COC(=O)c1cc(=O)[nH]c2ccccc12 > 76.9 µM
COc1ccc(N(CC(=O)NCc2ccccc2)S(=O)(=O)c2c(C)noc2C)cc1 > 76.9 µM
CC1CCCCN1C(=O)CSc1nc(-c2ccccc2)cc(=O)[nH]1 (stereo unspecified) > 76.9 µM
O=C(NCc1ccccc1)C(c1cccnc1)N(Cc1ccco1)C(=O)c1ccccn1 (stereo unspecified) > 76.9 µM
Cc1nnc(SCc2ccccc2C#N)n1-c1ccccc1
N#CC1=C2SCC(O)(c3ccccc3)N2C(=O)CC1c1cccs1 (stereo unspecified) > 76.9 µM
O=c1ccccn1Cc1ccccc1F > 76.9 µM
CN(C)S(=O)(=O)c1cccc(-c2cn3ccccc3n2)c1 > 76.9 µM
O=c1c2cnn(-c3ccccc3)c2nnn1Cc1ccccn1 > 76.9 µM
Cc1ccc(S(=O)(=O)N2CCN(C(=O)CSc3nc4ccccc4c(=O)[nH]3)CC2)c(C)c1 > 76.9 µM
O=C(NCCN1CCOCC1)c1ccc(CS(=O)(=O)Cc2ccccc2F)o1 > 76.9 µM
O=C(COC(=O)c1ccccn1)Nc1cccc(Cl)c1Cl > 76.9 µM
O=C(NCCC1=CCCCC1)C1CCN(S(=O)(=O)N2CCOCC2)CC1 > 76.9 µM
O=C(O)CCC(=O)N(Cc1cccnc1)Cc1cccc(F)c1 > 76.9 µM
Cc1cc(C)c2c(-n3cccc3)c(C(=O)O)sc2n1 > 76.9 µM
O=C(Oc1ccccc1)c1ccc(-n2cnnn2)cc1 > 76.9 µM
O=C(CN(Cc1ccco1)C(=O)CNS(=O)(=O)c1ccc(F)cc1)NCc1ccc(F)cc1 > 76.9 µM
C/C(=C(\C#N)C(=O)NCCN1CCOCC1)N(C)C > 76.9 µM
CCOC(=O)c1cc(C)n(CCc2ccccc2)c1C > 76.9 µM
C=CCSc1ncccc1C(=O)O > 76.9 µM
CC(=O)C1=C(C)Nc2ncnn2C1c1ccc(Cl)cc1Cl (stereo unspecified) > 76.9 µM
Cc1c(OCC(=O)OC(C)(C)C)ccc2c3c(c(=O)oc12)CCC3 > 76.9 µM
O=C(COC(=O)C1c2ccccc2Oc2ccccc21)NC1CCS(=O)(=O)C1 (stereo unspecified) > 76.9 µM
Cc1ccc(OCc2nc(C#N)c(N3CCCC3)o2)cc1 > 76.9 µM
CC(=O)Nc1ccc(S(=O)(=O)N2CCN(CC(=O)NC3CCCC3)CC2)cc1 > 76.9 µM
C=CCNc1nc2c(c(=O)[nH]c(=O)n2C)n1CCCCC > 76.9 µM
CCc1cccc(C)c1NC(=O)C1C2CCC(O2)C1C(=O)O (stereo unspecified) > 76.9 µM
COC(=O)c1ccc(NC(=O)c2ccccc2N(C)S(C)(=O)=O)cc1 > 76.9 µM
O=C1NC2(CCCC2)N=C1c1ccc(Cl)cc1 > 76.9 µM
O=C(CC(C(=O)O)C1CCCO1)NCCc1ccc2c(c1)OCO2 (stereo unspecified) > 76.9 µM
COC(=O)CNC(=O)c1c(-c2ccccc2Cl)noc1C > 76.9 µM
COC(=O)c1ccc(-c2nc3ccc(C)cc3o2)cc1 > 76.9 µM
CCN(CC(=O)NC1CCS(=O)(=O)C1)C(=O)C(c1ccccc1)c1ccccc1 (stereo unspecified) > 76.9 µM
CCOC(=O)C1C2C=CC3(CN(C4CCCC4)C(=O)C13)O2 (stereo unspecified) > 76.9 µM
COc1ccc(NC(=O)C2CCN(C(=O)NC3CCCCC3)CC2)c(OC)c1 > 76.9 µM
COc1ccc(C)cc1-n1nnnc1SCC(=O)c1ccc2c(c1)OCCO2 > 76.9 µM
COc1cc(CN2CCC(C(=O)N3CCCC(C)C3)CC2)cc(Br)c1O (stereo unspecified) > 76.9 µM
CC(=O)c1nn(-c2cccc(Cl)c2)cc1C(=O)c1ccco1 > 76.9 µM
CCOC(=O)N1CCN(C(=O)CN(C)S(=O)(=O)c2ccc(OC)c(OC)c2)CC1 > 76.9 µM
CCn1c(SCC(=O)N2CCN(c3ccc(F)cc3)CC2)nc2ccccc2c1=O > 76.9 µM
CC(C)OC(=O)CCC1(C(=O)O)CCC(=O)NC1 (stereo unspecified) > 76.9 µM
O=C1CC(C(=O)NCc2ccccc2)C2(CCCC2)O1 (stereo unspecified) > 76.9 µM
CCOC(=O)c1ccccc1NS(=O)(=O)c1ccc(S(=O)(=O)N2CCCC2)cc1 > 76.9 µM
CCCn1nnc2sc3c(c2c1=O)CCC(C)C3 (stereo unspecified) > 76.9 µM
COc1ccc(F)cc1S(=O)(=O)NC1CC(C)(C)NC(C)(C)C1 > 76.9 µM
O=C(c1n[nH]c(=O)c2ccccc12)N1CCN(c2ccccc2)CC1 > 76.9 µM
CCC(=O)N/C=C/n1cnc2cc(C(F)(F)F)ccc21 > 76.9 µM
CCN(CC)CCN1C(=O)c2oc3ccccc3c(=O)c2C1c1ccc(C)cc1 (stereo unspecified) > 76.9 µM
CCn1cc(-c2cc(C(F)(F)F)n3nc(C(=O)O)cc3n2)c(C)n1 > 76.9 µM
